Results as given in PubChem BioAssay AID1508642 (National Center for Advancing Translational Sciences (NCATS), 2021).
Screen size: about 43,000 compounds; about 200 (0.47%) were called active. Inconclusive means that the source gave no clear call. Such entries were picked first, then a sample of the others. The call rests on the fitted dose curve; in most records, active means well fitted cell-killing curve with a large enough effect; inconclusive means small, poorly fitted or top-dose-only effect, or effect the other way; inactive means flat fitted curve, though single readings scatter. Where the call is inconclusive, the potency comes from a doubtful curve fit.
Potency means the concentration at half of the fitted maximal effect; tags describe the fitted curve by direction and shape.

Test: Cell viability qHTS assay in S16 Pmp22-F2sN cells; further: nearly all actives have a fitted effect of over 65% in size
Conditions: S16 Pmp22-F2sN Schwann cells (luciferase reporters placed in the Pmp22 gene) viability, CellTiter-Glo, 24 h; series mostly up to 57.5 µM
Description: Assay Provider: Jim Inglese Ph.D. National Center for Advancing Translational Science, National Institutes of Health, Rockville, MD CMT is a heterogeneous group of neurological disorders that affect approximately 1 in 2,500 people. In particular, the most common form of CMT, CMT1A is genetically linked to the duplication of the PMP22 gene which leads to Schwann cell overexpression, thus manifesting itself as a typical case of dose-sensitive diseases. To identify small molecule compounds that can mediate the expression of PMP22 we developed a phenotypic assay screening strategy by utilizing genome editing techniques to construct Schwann cell lines containing novel reporter technology to monitor the transcriptional or translational regulation of PMP22. For high sensitivity we use a bioluminescent reporter system embedded in the 3' UTR of the PMP22 gene (S16(c9) Pmp22-F2sN) to identify compounds that inhibit gene expression. […] We can further discriminate the effect of all transcriptionally active molecules on PMP22 translation or stability with an assay that incorporates a short NLuc peptide (HiBiT) at the C-terminus of expressed PMP22 (S16(f8) PMP22-HiBiT) allowing alpha complementation and luminescence detection of membrane-associated PMP22 protein. These assays were screened against the NCATS Sytravon Library Collection. Miniaturization of these assays to 1536-well plate format for quantitative high throughput screening (qHTS) yielded rich data sets immediately from the qHTS assay (S16(c9) Pmp22-F2sN), when compared with data from a cell viability assay (Cell TiterGlo) to identify compounds that decreased the output signals through cellular toxicity to streamline the selection process of actives for subsequent characterization using the HiBiT assay (S16(f8) PMP22-HiBiT).
Cell viability assay in S16 Pmp22-F2sN cells PROTOCOL TABLE (format as described by Inglese J, Shamu CE and Guy RK. 2007) SEQUENCE No. (e.g., 1, 2, 3, etc.); […] (e.g., Cells, Incubation, Reagent, etc.); VALUE and DESCRIPTION. 1. Cells. Add 500-1,000 cells in 4 uL in growth media (DMEM High Glucose, No Phenol Red media + 10% heat-inactivated FBS + 1% Pen/Strep supplemented media) per well into Greiner 1536-well white/solid bottom high base, TC-treated plates. 2. Compounds. Library compounds and controls added at 23nL per well, transferred by Pin Tool. 3. Incubation. Incubate plates at 37C, 5% CO2, 95% RH for 24 h. 4. Reagent. Add 3uL CellTiter-Glo per well of Greiner 1536-well plates. 5. Incubation. Incubate plates at room temperature for 15 min., protect from light. 6. Detector. FLuc luminescence measured using CCD-based camera (Viewlux). NOTES (numbers refer to Sequence numbers above; values are from representative experiments) 6. Luminescence Read: Clear filter; Exposure = 1 sec, Gain = High, Speed = Slow, Binning = 2X REFERENCES: 1. Inglese J, Shamu CE and Guy RK, Reporting data from high throughput screening of small molecule libraries, Nature Chemical Biology, 2007, 3(8): 438-441. doi.org/10.1038/nchembio0807-438 2. Yasgar A, Shinn P, Jadhav A, Auld DS, Michael S, Zheng W, Austin CP, Inglese J and Simeonov A, Compound Management for Quantitative High-Throughput Screening. J. Assoc. Lab. Auto., 2008, 13: 79-89. doi: 10.1016/j.jala.2007.12.004
In the case of `Cc1ccc(NC(=O)CCn2c(=O)c3cccn3c3ccccc32)c(Cl)c1`, the Potency is reported as inconclusive: 39.8 µM [cytotoxic, partial curve, poor fit].
For `Clc1cccc(-n2cc(-c3ccccc3)c3c(N4CCCCC4)ncnc32)c1`, the Potency was inconclusive: 3.98 µM [rising, partial curve, poor fit].
For `CCOC(=O)C1CCCN(S(=O)(=O)c2cc3c4c(c2)CC(=O)N4CCC3)C1` (centres undefined), the Potency was inconclusive: 39.8 µM [cytotoxic, single point].
With `COc1cccc(CNC(=O)c2oc3c(c2C)-c2nn(Cc4cccc(Cl)c4)cc2CC3)c1` the Potency was inconclusive: 39.8 µM [cytotoxic, single point].
In the case of `COc1cccc(C(=O)N(Cc2cccnc2)c2nc3c(OC)ccc(C)c3s2)c1OC`, the Potency is reported as inconclusive: 39.8 µM [cytotoxic, single point].
In the case of `CCOc1cc(C2CC(=O)Nc3cc4c(cc32)OCCO4)ccc1O` (centres undefined), the Potency is reported as inconclusive: 14.1 µM [cytotoxic, partial curve, poor fit].
In the case of `COc1cc(CN2CCc3nc(N4CCN(c5ncccn5)CC4)ncc3C2)cc(OC)c1OC`, the Potency is reported as inconclusive: 25.1 µM [cytotoxic, single point].
For `CCc1noc(-c2ccc(NCc3ccccc3)c([N+](=O)[O-])c2)n1`, the Potency was inconclusive: 39.8 µM [cytotoxic, single point].
In the case of `O=C(COc1ccccc1Cl)Nc1ccc(Cl)c(-c2nc3ccccc3o2)c1`, the Potency is reported as inconclusive: 31.6 µM [cytotoxic, single point].
With `O=C(O)c1ccc2nc(-c3cc4cc(F)ccc4oc3=O)[nH]c2c1` the Potency was “inactive”.
For `Cc1ccc(-n2ccnc(NCCc3ccc(S(N)(=O)=O)cc3)c2=O)cc1C`, the Potency was inconclusive: 39.8 µM [cytotoxic, single point].
With `O=C(Nc1ccc2oc(-c3cccnc3)nc2c1)c1ccc(-c2ccccc2)o1` the Potency was “inactive”.
In the case of `CCC(CO)Nc1ncnc2c1cnn2-c1ccc(C)cc1` (centres undefined), the Potency is reported as “inactive”.
For `Cc1ccc(Cl)cc1Nc1nn2c(=O)c3ccc(C(=O)NCc4cccs4)cc3nc2s1`, the Potency was active: 25.1 µM.
For `Cc1ccc(N(CC(=O)N2CCN(c3ccc(Cl)cc3)CC2)S(=O)(=O)c2c(C)noc2C)cc1`, the Potency was inconclusive: 39.8 µM [cytotoxic, single point].
In the case of `CCOc1ccc(C(=O)Nc2ccc(S(=O)(=O)N3CCCCC3c3cccnc3)cc2)cc1` (centres undefined), the Potency is reported as inconclusive: 20 µM [cytotoxic, partial curve].
For `COc1ccc(Cn2ccnc2SCC(=O)NCc2ccccc2)cc1`, the Potency was inconclusive: 35.5 µM [cytotoxic, single point].
With `COc1ccccc1-c1ccnc2[nH]n(-c3ccccc3)c(=O)c12` the Potency was inconclusive: 0.112 µM [rising, full curve, poor fit].
With `O=C(CSc1nc2c([nH]c3ccccc32)c(=O)n1-c1ccccc1)c1ccccc1` the Potency was “inactive”.
For `Cc1ccc(N2CCN(C(=O)c3ccc4c(Cl)c5c(nc4c3)CCCC5)CC2)c(C)c1`, the Potency was inconclusive: 7.08 µM [rising, full curve, poor fit].
In the case of `CCN(CC)CCNC(=O)C1CCN(S(=O)(=O)c2c(C)noc2/C=C/c2ccccc2F)CC1`, the Potency is reported as inconclusive: 28.2 µM [cytotoxic, single point].
For `COc1ccc(-c2c(C)nn3c(C(F)(F)F)cc(-c4ccc(Br)cc4)nc23)cc1`, the Potency was “inactive”.
For `COc1cc2c(cc1OC)C(COc1ccc3c(C)cc(=O)oc3c1)N(C(=O)c1ccc(C)c(C)c1)CC2` (centres undefined), the Potency was “inactive”.
In the case of `COc1ccc(Nc2nnc(-c3ccc(C)c(S(=O)(=O)N4CCN(C)CC4)c3)c3ccccc23)cc1`, the Potency is reported as inconclusive: 39.8 µM [cytotoxic, single point].
For `Cc1ccc(Cl)cc1NC(=O)c1cnn2c(C(F)F)cc(-c3ccccc3)nc12`, the Potency was “inactive”.
In the case of `CCn1cc(C(=O)NCCCN2CCC(C)CC2)c(=O)c2cc(S(=O)(=O)N(C)C3CCCCC3)ccc21`, the Potency is reported as inconclusive: 39.8 µM [cytotoxic, single point].
For `Cc1nc2cc(-c3ccccc3)nn2c(C)c1CCC(=O)NCCc1ccccc1`, the Potency was inconclusive: 39.8 µM [cytotoxic, partial curve, poor fit].
In the case of `CCC1CCCCN1S(=O)(=O)c1ccc(NC(=O)c2nc(SC)ncc2Cl)cc1` (centres undefined), the Potency is reported as inconclusive: 14.1 µM [cytotoxic, single point].
For `Cc1cccc(CCNC(=O)c2ccc3c(c2)nc2n3CCOC2)c1`, the Potency was “inactive”.
With `CCOC(=O)c1ccc(Nc2nc(N)c3cc(OC)c(OC)cc3n2)cc1` the Potency was inconclusive: 39.8 µM [cytotoxic, single point].
For `COC(=O)c1ccc(NC(=O)c2cc(S(=O)(=O)N3CCC(C)CC3)cn2C)cc1`, the Potency was “inactive”.
For `CCCOCc1cc(CN2CCN(c3cccc(Cl)c3)CC2)c(O)c2ncccc12`, the Potency was inconclusive: 3.55 µM [cytotoxic, partial curve, poor fit].
In the case of `Cc1cccc(C)c1NC(=O)c1c(C)oc2c1C1=NCCN1C=N2`, the Potency is reported as inconclusive: 0.355 µM [cytotoxic, full curve, poor fit].
With `COc1ccc(CC(=O)Nc2ccc(-c3nc4ccccc4s3)cc2Cl)cc1OC` the Potency was inconclusive: 44.7 µM [cytotoxic, partial curve, poor fit].
For `Cc1c(Cl)cccc1-n1c(SCC(=O)NCc2ccccc2)nc2n[nH]c(C)c2c1=N`, the Potency was inconclusive: 14.1 µM [cytotoxic, partial curve, poor fit].
For `CCOc1ccc(NC(=O)CN(c2ccccc2OCC)S(=O)(=O)c2ccccc2)cc1`, the Potency was inconclusive: 39.8 µM [cytotoxic, single point].
With `Cc1ccc(NC(=O)Cn2c(=O)n(-c3ccc(C)cc3)c(=O)c3ccc(C(=O)NCc4ccccc4Cl)cc32)cc1` the Potency was inconclusive: 39.8 µM [cytotoxic, single point].
In the case of `Cc1ccc(S(=O)(=O)c2nc(-c3ccco3)oc2SC(C)C)cc1`, the Potency is reported as inconclusive: 14.1 µM [cytotoxic, partial curve, poor fit].
For `CCCn1c2ccccc2c2cnn(CC(=O)Nc3cccc(C(=O)OCC)c3)c(=O)c21`, the Potency was “inactive”.
